According to the supplement of paper PMC12217912:
The other results are listed elsewhere or left out. Sequences were assembled here from the parent chain. Values near 0.05 are background.

B1: TEV protease; numbered along this chain (parent)
chain: MGESLFKGPRDYNPISSSICHLTNESDGHTTSLYGIGFGPFIITNKHLFRRNNGTLVVQSLHGVFKVKDTTTLQQHLVDGRDMIIIRMPKDFPPFPQKLKFREPQREERICLVTTNFQTKSMSSMVSDTSCTFPSGDGIFWKHWIQTKDGQCGSPLVSTRDGFIVGIHSASNFTNTNNYFTSVPKNFMELLTNQEAQQWVSGWRLNADSVLWGGHKVFMVKPEEPFQPVKEATQL

Variants of: B1
Assay: raw area under fraction-flipped curve 0-4 h after induction (AUC4h, not background-subtracted), DNA-recorder readout of cleavage of the substrate (dimensionless); higher = more cleavage of the substrate by the protease variant
Conditions: temperature: 34 °C; time window: 0-4 h after rhamnose induction
Experimental: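 In vivo DNA recorder in E. coli TOP10(DE3) ΔrhaA at 34 °C. Each TEVp single-site mutant (parent TEVp 0) is paired with a single-site variant of the 7-mer TEVs (canonical ENLYFQ|S). The substrate sits between flexible linkers in a Bxb1-sfGFP-TEVs-SsrA fusion, so cleavage stabilises Bxb1 and speeds flipping of a recombination array, read by NGS. The value is the raw area under the fraction-flipped curve over 0-4 h after rhamnose induction (AUC4h), with ≥20 reads per time point. It is not background-subtracted; inactive controls average about 0.047.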
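Note: Bxb1 expression induced with 0.2% (w/v) L-rhamnose at OD600 near 0.5, cultures sampled hourly, flipped fraction per protease–substrate barcode pair counted by paired-end Illumina sequencing.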

Variant | area with substrate EALYFQS | area with substrate ECLYFQS | area with substrate EFLYFQS | area with substrate EGLYFQS | area with substrate EHLYFQS | area with substrate EKLYFQS | area with substrate EMLYFQS | area with substrate EPLYFQS | area with substrate EQLYFQS | area with substrate ESLYFQS | area with substrate EVLYFQS | area with substrate EILYFQS | area with substrate ERLYFQS | area with substrate EWLYFQS | area with substrate ELLYFQS | area with substrate ETLYFQS | area with substrate EYLYFQS | area with substrate EELYFQS | area with substrate EDLYFQS
MGESLFKGPRDYNPISSSICHLTNESDGHTTSLYGIGFGPFIITNKHLFRRNNGTLVVQSLHGVFKVKDTTTLQQHLVDGRDMIIIRMPKDFPPFPQKLKFREPQREERICLVTTNFRTKSMSSMVSDTSCTFPSGDGIFWKHWIQTKDGQCGSPLVSTRDGFIVGIHSASNFTNTNNYFTSVPKNFMELLTNQEAQQWVSGWRLNADSVLWGGHKVFMVKPEEPFQPVKEATQL [Q118R] | 0.108 | 0.134 | 0.103 | 0.0858 | 0.145 | 0.0946 | 0.0932 | 0.146 | 0.124 | 0.084 | 0.113 |  |  |  |  |  |  |  | 
MGESLFKGPRDYNPISSSICHLTNESDGHTTSLYGIGFGPFIITNKHLFRRNNGTLVVQSLHGVFKVKDTTTLQQHLVDGRDMIIIRMPKDFPPFPQKLKFREPQREERICLVTTNFQVKSMSSMVSDTSCTFPSGDGIFWKHWIQTKDGQCGSPLVSTRDGFIVGIHSASNFTNTNNYFTSVPKNFMELLTNQEAQQWVSGWRLNADSVLWGGHKVFMVKPEEPFQPVKEATQL [T119V] | 0.138 | 0.0779 | 0.0677 |  |  | 0.125 | 0.0508 | 0.115 |  | 0.106 |  | 0.0786 | 0.111 | 0.12 |  |  |  |  | 
MGESLFKGPRDYNPISSSICHLTNESDGHTTSLYGIGFGPFIITNKHLFRRNNGTLVVQSLHGVFKVKDTTTLQQHLVDGRDMIIIRMPKDFPPFPQKLKFREPQREERICLVTTNFQTSSMSSMVSDTSCTFPSGDGIFWKHWIQTKDGQCGSPLVSTRDGFIVGIHSASNFTNTNNYFTSVPKNFMELLTNQEAQQWVSGWRLNADSVLWGGHKVFMVKPEEPFQPVKEATQL [K120S] | 0.107 | 0.119 |  | 0.093 | 0.125 |  | 0.102 | 0.134 | 0.115 | 0.0886 | 0.113 | 0.0887 | 0.0932 | 0.0678 | 0.114 | 0.12 | 0.125 |  | 
MGESLFKGPRDYNPISSSICHLTNESDGHTTSLYGIGFGPFIITNKHLFRRNNGTLVVQSLHGVFKVKDTTTLQQHLVDGRDMIIIRMPKDFPPFPQKLKFREPQREERICLVTTNFQTKSRSSMVSDTSCTFPSGDGIFWKHWIQTKDGQCGSPLVSTRDGFIVGIHSASNFTNTNNYFTSVPKNFMELLTNQEAQQWVSGWRLNADSVLWGGHKVFMVKPEEPFQPVKEATQL [M122R] | 0.167 |  | 0.145 |  | 0.124 |  |  |  |  | 0.104 |  | 0.116 |  | 0.104 | 0.11 |  |  | 0.122 | 
MGESLFKGPRDYNPISSSICHLTNESDGHTTSLYGIGFGPFIITNKHLFRRNNGTLVVQSLHGVFKVKDTTTLQQHLVDGRDMIIIRMPKDFPPFPQKLKFREPQREERICLVTTNFQTKSMCSMVSDTSCTFPSGDGIFWKHWIQTKDGQCGSPLVSTRDGFIVGIHSASNFTNTNNYFTSVPKNFMELLTNQEAQQWVSGWRLNADSVLWGGHKVFMVKPEEPFQPVKEATQL [S123C] | 0.163 | 0.0738 |  | 0.116 | 0.0653 | 0.0636 | 0.119 | 0.0955 |  | 0.0802 |  | 0.0944 | 0.0911 | 0.0878 |  | 0.0941 |  |  | 
MGESLFKGPRDYNPISSSICHLTNESDGHTTSLYGIGFGPFIITNKHLFRRNNGTLVVQSLHGVFKVKDTTTLQQHLVDGRDMIIIRMPKDFPPFPQKLKFREPQREERICLVTTNFQTKSMYSMVSDTSCTFPSGDGIFWKHWIQTKDGQCGSPLVSTRDGFIVGIHSASNFTNTNNYFTSVPKNFMELLTNQEAQQWVSGWRLNADSVLWGGHKVFMVKPEEPFQPVKEATQL [S123Y] | 0.0852 |  |  |  |  | 0.0935 | 0.101 |  | 0.114 | 0.114 | 0.0854 | 0.107 |  | 0.108 |  | 0.114 |  |  | 
MGESLFKGPRDYNPISSSICHLTNESDGHTTSLYGIGFGPFIITNKHLFRRNNGTLVVQSLHGVFKVKDTTTLQQHLVDGRDMIIIRMPKDFPPFPQKLKFREPQREERICLVTTNFQTKSMSHMVSDTSCTFPSGDGIFWKHWIQTKDGQCGSPLVSTRDGFIVGIHSASNFTNTNNYFTSVPKNFMELLTNQEAQQWVSGWRLNADSVLWGGHKVFMVKPEEPFQPVKEATQL [S124H] | 0.0994 |  | 0.13 | 0.0992 | 0.133 | 0.116 |  | 0.121 |  | 0.116 |  | 0.105 |  |  |  |  | 0.124 | 0.122 | 0.159
MGESLFKGPRDYNPISSSICHLTNESDGHTTSLYGIGFGPFIITNKHLFRRNNGTLVVQSLHGVFKVKDTTTLQQHLVDGRDMIIIRMPKDFPPFPQKLKFREPQREERICLVTTNFQTKSMSSCVSDTSCTFPSGDGIFWKHWIQTKDGQCGSPLVSTRDGFIVGIHSASNFTNTNNYFTSVPKNFMELLTNQEAQQWVSGWRLNADSVLWGGHKVFMVKPEEPFQPVKEATQL [M125C] | 0.0963 | 0.0832 |  | 0.0611 |  |  |  | 0.0678 | 0.0911 | 0.1 | 0.0913 | 0.0984 | 0.111 |  | 0.0892 | 0.12 |  |  | 
MGESLFKGPRDYNPISSSICHLTNESDGHTTSLYGIGFGPFIITNKHLFRRNNGTLVVQSLHGVFKVKDTTTLQQHLVDGRDMIIIRMPKDFPPFPQKLKFREPQREERICLVTTNFQTKSMSSGVSDTSCTFPSGDGIFWKHWIQTKDGQCGSPLVSTRDGFIVGIHSASNFTNTNNYFTSVPKNFMELLTNQEAQQWVSGWRLNADSVLWGGHKVFMVKPEEPFQPVKEATQL [M125G] | 0.111 |  |  |  | 0.154 | 0.143 |  |  | 0.113 | 0.102 |  | 0.0941 | 0.12 | 0.114 |  |  |  | 0.138 | 
